This series deals with the molecule itself. Put plainly: SDS-PAGE of heated samples (folded tetramers resolved from denatured monomers); 2% SDS, with 5 mM biotin, heated at 95 °C for up to 60 min, 12% SDS-PAGE, Coomassie; fraction still tetrameric relative to time zero.

As usually defined, the stoichiometry N is a count of units in the complex or per binding partner.

B1: streptavidin mutein M88 (N49C/A86C), oxidized, as used in the thermostability assay (natural protein)
chain: not shown
modifications: disulfide bond between Cys-49 and Cys-86 (previously oxidized)
notes: streptavidin, Streptomyces avidinii; numbers count on: the mature protein; also called oxidized M88; source: both purified
As to B1, the “stoichiometry N” value came out at 4.

The values above are taken from PMC7385176, “Engineering a disulfide-gated switch in streptavidin enables reversible binding without sacrificing binding affinity” (Scientific Reports, 2020).
